Measurements reported in the supplement of paper PMC10126150.
Sequences with one replicate were seen in a single cluster, so their values are uncertain.

Tested on: ATP
Assay: switch fluorescence ratio, 500 uM ATP over buffer (Cy3 cluster intensity, sum of 5 cycles each) (fold (ratio)); higher = stronger signal-on switching upon ATP binding; sequences stand for … in TCGTCGGCAGCGTCAGATGTGTATAAGAGACAGTTTTTTTTTTTTTTTTTTTTTTTTT…TC
Settings: aptamer strand: ATP DNA aptamer (quencher-CACCTGGGGGAGTATTGCGGAGGAAGG + anchor), 100 nM annealed; ATP concentration: 500 uM; one replicate
Method in brief: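 The quencher-labelled ATP aptamer, at 100 nM, was annealed to Cy3-labelled switching-strand clusters on a modified Illumina MiSeq flow-cell. The clusters were imaged in selection buffer, then after 15 min with 500 uM ATP at 22 °C, and this buffer/ATP cycle ran five times with NaOH stripping and re-annealing between runs. Per-cluster fluorescence ratios, summed target-cycle over summed buffer-cycle Cy3 intensity, were averaged per switch-domain sequence. Clusters outside 100-1000 RFU were excluded.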
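Also: ATP exposure 15 min at 22 °C before imaging.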

Row | Sequence | switch fluorescence ratio
1 | AGAGGGTA | 0.983
2 | TTCAGATTAA | 1.02
3 | AGTGCGTCCC | 0.967
4 | TATTACGACT | 1.04
5 | TTCGAGGCAG | 0.997
6 | CGGGGACAAA | 1.01
7 | GAGCCAAGCT | 1
8 | ACTCCTTAC | 3.21
9 | GATCACGTAC | 1.8
10 | TCCAATGCA | 1.21
11 | GTAATCCTAA | 1.02
12 | CAAATGGCAC | 1.05
13 | CAACTTCTCA | 1.01
14 | GGCTTCAACG | 1.03
15 | TTGGCGTGGT | 1.02
16 | CGAGCTATTG | 0.995
17 | TGACTGCGCA | 1.24
18 | AGGAAGTTGT | 0.991
19 | GTCATTAGCT | 1.02
20 | CGGGGTTTCT | 0.994
21 | GAGTTAATCT | 1.03
22 | GTCGTTGATG | 1
23 | TCTCAGTTTA | 0.981

Row | Sequence | switch fluorescence ratio
24 | GTTTTGACAG | 0.986
25 | TATAAGGTGC | 1.4
26 | ATACCTAACT | 1.19
27 | GCCAAGGGG | 1.03
28 | CCACATCGGC | 1.06
29 | CTTGGCCAGA | 1.02
30 | GAGTGCGTTG | 0.973
31 | GAAAGAAAGG | 1.01
32 | ATGCCTGTAC | 1.08
33 | TGCGTTGGGT | 0.986
34 | CTAATAGCGG | 0.972
35 | TTGGTCGCAA | 5.9
36 | CTGGTACAAT | 1.06
37 | CACATCTCCC | 1.17
38 | ACGGGGATAC | 2.28
39 | AGGCCTAAGG | 0.954
40 | AACACTTTGT | 1
41 | CGGGAAGCA | 0.977
42 | TACTGAAATG | 1.01
43 | CGAAAATTTT | 1.01
44 | CGAGTCAGTA | 1.02
45 | AACAGATTGC | 0.979
46 | GTTCATGGAC | 1

Row | Sequence | switch fluorescence ratio
47 | CGATAATCCG | 0.899
48 | TGAATGGAGA | 0.959
49 | TTATATGCGG | 0.985
50 | TGACTAATTA | 1.1
51 | GGCCACATAA | 1.01
52 | TAGGATAGTA | 0.991
53 | GTGAGGATTA | 1.02
54 | AAATGGCGG | 0.953
55 | CATCTTGGTG | 1.06
56 | CCATACCGGC | 1.2
57 | GTACCAAGCA | 1.03
58 | TCGCGGTGG | 1.06
59 | GATCAGGACT | 1
60 | TCACAGATGC | 1.08
61 | GCTGATGCCC | 1.11
62 | ATTTGTACAT | 1.02
63 | CCCTTCTGTT | 0.965
64 | TACGGTATTG | 1.11
65 | TCCAAAAGGA | 1.03
66 | CAATTAGTGG | 0.95
67 | TAGTGCCCCA | 1.04
68 | ATGTGAATTT | 0.978
69 | TCAAACCATC | 1.01

Row | Sequence | switch fluorescence ratio
70 | AATCGTGATA | 1.01
71 | ATTCGAGACC | 1
72 | GCGGTCATTC | 0.991
73 | ATGGTGGAAA | 1.01
74 | TGCCAATAGT | 1.1
75 | CTTACAGTAA | 1.11
76 | ATGATGGAAA | 1.03
77 | ATCTCGTATG | 1.06
78 | GACTGGCTCG | 1.1
79 | CTTCCTCTTA | 2.03
80 | TGACGAAGAT | 1.05
81 | GCAATCACC | 2.46
82 | TTACAGATGG | 1.02
83 | CCAAAAACTG | 1.37
84 | CAGCTGATTT | 1.04
85 | TTGGCAAGAT | 1.03
86 | AAGAATTAGG | 1
87 | ACAATCCAGC | 1.05
88 | TACTGCATGC | 1.19
89 | ATGGGGCTCG | 0.98
90 | ATATCCGAAG | 1.1
91 | TTTGGTGGCG | 0.997
92 | GATATTGCAC | 1.07

Row | Sequence | switch fluorescence ratio
93 | AGGGTGGACG | 0.969
94 | AGTCTAAGTC | 0.967
95 | CACCTACTAC | 1.36
96 | TTGTGGTAGA | 1.03
97 | CAGCTAACCG | 1.02
98 | GCAAGCCGGT | 1.05
99 | GTGGACAAAG | 0.944
100 | AGATGTTGTG | 0.958
101 | TCTGTCTAT | 0.978
102 | GACTATTTTT | 1.01
103 | ATTGCCAGTG | 1.01
104 | TATGATCTTG | 1.05
105 | AAGCCGAGTG | 0.993
106 | TCAGCCGGG | 1.07
107 | GAAGGTTGTA | 1.01
108 | GGGTAATTGC | 1
109 | TGTAGGTAAT | 0.991
110 | CTGAACCCTA | 0.996
111 | TCTTCTGATC | 1.07
112 | CTCATGAGAT | 0.993
113 | TTTCGGGCG | 1.09
114 | TTTGCTGTGA | 0.992
115 | GTGATTGTTA | 1.01

Row | Sequence | switch fluorescence ratio
116 | AAGACTGA | 1.06
117 | TCAGAACGTT | 1.03
118 | GGGTTCAGCC | 0.994
119 | CAACGCACTA | 1.95
120 | ATTGAAGGCT | 0.989
121 | GGTCCAAA | 1.01
122 | CGTGGGGTAT | 1
123 | ACGTTTCACA | 1.34
124 | CGAATCTCCA | 1.09
125 | CCCGTGTGGC | 1.11
126 | CATTGGCTGC | 1.01
127 | GCATGAGAAG | 1.02
128 | GTAGCTGGGA | 1.04
129 | AAGTTACTCT | 1.08
130 | GGTTGTGCTG | 0.995
131 | ACGATATAGG | 1.15
132 | TCTTAGTATG | 0.969
133 | CTCACGGACC | 1.79
134 | AGATGTGAGG | 1.03
135 | CACAATGGCT | 0.98
136 | CCGGACGAGC | 1.25
137 | GACATTTGTG | 1.04
138 | AGAGAGGCGT | 0.996

Row | Sequence | switch fluorescence ratio
139 | CCACCAGATA | 1.14
140 | GGCCCCGAT | 1.01
141 | ATTGTGGTAC | 1.01
142 | AGGAGTGATA | 1.03
143 | CTAGAGATGG | 1.02
144 | GCCATTAGGG | 1.02
145 | AGACAGTTCA | 0.973
146 | TGGTGG | 0.989
147 | TTTATATTGA | 0.967
148 | TTAGATTTGA | 0.987
149 | CGGTTTTATG | 0.974
150 | GGCTAACCGT | 0.978
151 | CATGTTCATT | 0.979
152 | GATAACTATG | 0.999
153 | TGAGTTGTGA | 0.995
154 | TCTACTTAT | 1.07
155 | TAGATCAGAC | 1.01
156 | CTTAACTGGG | 1.05
157 | AAGCATATCT | 1.13
158 | AGCCTGATCG | 0.993
